# This is one part of the list.
# Experiments:
# Experiment in all cases: glycan array binding signal (z-score within array); higher = stronger binding
# Details in all cases: glycan notation: IUPAC condensed, linker removed; mutation: E227G
# [1] = target: Neu5Ac(a2-3)Gal(b1-3)GlcNAc(b1-6)GalNAc
# Procedure, shortened: (§1)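 The Consortium for Functional Glycomics database supplied 3228 glycan arrays, of which those lacking an available protein sequence were dropped. The binding signal, a within-array Z-score, was averaged across arrays of the same protein sequence and across linkers. Negative scores can be read as non-binding.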
# [2] = target: Neu5Ac(a2-3)Gal(b1-3)GlcNAc6S
# Procedure, shortened: as §1
# [3] = target: Neu5Ac(a2-3)Gal(b1-3)[Fuc(a1-4)]GlcNAc
# Procedure, shortened: as §1
# [4] = target: Neu5Ac(a2-3)Gal(b1-3)[Fuc(a1-4)]GlcNAc(b1-3)Gal(b1-3)[Fuc(a1-4)]GlcNAc
# Procedure, shortened: as §1
# [5] = target: Neu5Ac(a2-3)Gal(b1-3)[Fuc(a1-4)]GlcNAc(b1-3)Gal(b1-4)[Fuc(a1-3)]GlcNAc
# Procedure, shortened: as §1
# [6] = target: Neu5Ac(a2-3)Gal(b1-3)[GlcNAc(b1-6)]GalNAc
# Procedure, shortened: as §1
# [7] = target: Neu5Ac(a2-3)Gal(b1-3)[Neu5Ac(a2-6)]GalNAc
# Procedure, shortened: as §1
# [8] = target: Neu5Ac(a2-3)Gal(b1-3)[Neu5Ac(a2-6)]GlcNAc(b1-3)[Fuc(a1-3)[Gal(b1-4)]GlcNAc(b1-6)]Gal(b1-4)Glc
# Procedure, shortened: as §1
# [9] = target: Neu5Ac(a2-3)Gal(b1-3)]Neu5Ac(a2-3)Gal(b1-4)]GlcNAc
# Procedure, shortened: as §1
# Neu5Ac(a2-3)Gal(b1-4)Glc = target: Neu5Ac(a2-3)Gal(b1-4)Glc
# Procedure, shortened: as §1
# [10] = target: Neu5Ac(a2-3)Gal(b1-4)GlcNAc
# Procedure, shortened: as §1
# [11] = target: Neu5Ac(a2-3)Gal(b1-4)GlcNAc(b1-2)Man
# Procedure, shortened: as §1
# [12] = target: Neu5Ac(a2-3)Gal(b1-4)GlcNAc(b1-2)Man(a1-3)[GlcNAc(b1-4)][Neu5Ac(a2-3)Gal(b1-4)GlcNAc(b1-2)Man(a1-6)]Man(b1-4)GlcNAc(b1-4)GlcNAc
# Procedure, shortened: as §1
# [13] = target: Neu5Ac(a2-3)Gal(b1-4)GlcNAc(b1-2)Man(a1-3)[Neu5Ac(a2-3)Gal(b1-4)GlcNAc(b1-2)Man(a1-6)]Man(b1-4)GlcNAc(b1-4)GlcNAc
# Procedure, shortened: as §1
# [14] = target: Neu5Ac(a2-3)Gal(b1-4)GlcNAc(b1-2)Man(a1-3)[Neu5Ac(a2-3)Gal(b1-4)GlcNAc(b1-2)Man(a1-6)]Man(b1-4)GlcNAc(b1-4)[Fuc(a1-6)]GlcNAc
# Procedure, shortened: as §1
# [15] = target: Neu5Ac(a2-3)Gal(b1-4)GlcNAc(b1-2)Man(a1-3)[Neu5Ac(a2-6)Gal(b1-4)GlcNAc(b1-2)Man(a1-6)]Man(b1-4)GlcNAc(b1-4)GlcNAc
# Procedure, shortened: as §1
# [16] = target: Neu5Ac(a2-3)Gal(b1-4)GlcNAc(b1-2)[Neu5Ac(a2-3)Gal(b1-4)GlcNAc(b1-4)]Man(a1-3)[GlcNAc(b1-4)][Neu5Ac(a2-3)Gal(b1-4)GlcNAc(b1-2)[Neu5Ac(a2-3)Gal(b1-4)GlcNAc(b1-6)]Man(a1-6)]Man(b1-4)GlcNAc(b1-4)GlcNAc
# Procedure, shortened: as §1
# [17] = target: Neu5Ac(a2-3)Gal(b1-4)GlcNAc(b1-2)[Neu5Ac(a2-3)Gal(b1-4)GlcNAc(b1-4)]Man(a1-3)[GlcNAc(b1-4)][Neu5Ac(a2-3)Gal(b1-4)GlcNAc(b1-4)Man(a1-6)]Man(b1-4)GlcNAc(b1-4)GlcNAc
# Procedure, shortened: as §1
# [18] = target: Neu5Ac(a2-3)Gal(b1-4)GlcNAc(b1-2)[Neu5Ac(a2-3)Gal(b1-4)GlcNAc(b1-6)]Man(a1-6)[Neu5Ac(a2-3)Gal(b1-4)GlcNAc(b1-2)Man(a1-3)][GlcNAc(b1-4)]Man(b1-4)GlcNAc(b1-4)GlcNAc
# Procedure, shortened: as §1
# [19] = target: Neu5Ac(a2-3)Gal(b1-4)GlcNAc(b1-3)Gal
# Procedure, shortened: as §1
# [20] = target: Neu5Ac(a2-3)Gal(b1-4)GlcNAc(b1-3)Gal(b1-3)GlcNAc
# Procedure, shortened: as §1
# [21] = target: Neu5Ac(a2-3)Gal(b1-4)GlcNAc(b1-3)Gal(b1-4)GlcNAc
# Procedure, shortened: as §1
# [22] = target: Neu5Ac(a2-3)Gal(b1-4)GlcNAc(b1-3)Gal(b1-4)GlcNAc(b1-2)Man(a1-3)[Neu5Ac(a2-3)Gal(b1-4)GlcNAc(b1-3)Gal(b1-4)GlcNAc(b1-2)Man(a1-6)]Man(b1-4)GlcNAc(b1-4)GlcNAc
# Procedure, shortened: as §1
# [23] = target: Neu5Ac(a2-3)Gal(b1-4)GlcNAc(b1-3)Gal(b1-4)GlcNAc(b1-3)Gal(b1-4)GlcNAc
# Procedure, shortened: as §1
# [24] = target: Neu5Ac(a2-3)Gal(b1-4)GlcNAc(b1-3)Gal(b1-4)GlcNAc(b1-3)Gal(b1-4)GlcNAc(b1-2)Man(a1-3)[Neu5Ac(a2-3)Gal(b1-4)GlcNAc(b1-3)Gal(b1-4)GlcNAc(b1-3)Gal(b1-4)GlcNAc(b1-2)Man(a1-6)]GalNAc
# Procedure, shortened: as §1
# [25] = target: Neu5Ac(a2-3)Gal(b1-4)GlcNAc(b1-3)Gal(b1-4)GlcNAc(b1-3)GalNAc
# Procedure, shortened: as §1
# [26] = target: Neu5Ac(a2-3)Gal(b1-4)GlcNAc(b1-3)Gal(b1-4)GlcNAc(b1-3)[Neu5Ac(a2-3)Gal(b1-4)GlcNAc(b1-3)Gal(b1-4)GlcNAc(b1-6)]GalNAc
# Procedure, shortened: as §1
# [27] = target: Neu5Ac(a2-3)Gal(b1-4)GlcNAc(b1-3)Gal(b1-4)GlcNAc(b1-6)[Gal(b1-3)]GalNAc
# Procedure, shortened: as §1
# [28] = target: Neu5Ac(a2-3)Gal(b1-4)GlcNAc(b1-3)Gal(b1-4)[Fuc(a1-3)]GlcNAc
# Procedure, shortened: as §1
# [29] = target: Neu5Ac(a2-3)Gal(b1-4)GlcNAc(b1-3)GalNAc
# Procedure, shortened: as §1
binder,measurement,setting,value
"Epa1-NP-mutant-E227G (Candida glabrata), Q6VBJ0 (protein) MILNPALFLNKCVCIYTTLILLLLTNGGYATSSNDISLASKDPTTFPLGCSPDITTPKKGLSMELYSYDFRKKGSYPCWDAAYLDPNYPRTGYKSHRLLAKVDGVTGNINFYYHATKGCTPQLGHLPASYNYPKPLTMTNFTMLLYGYFRPKVTGFHTFTISADDLLFVNFGAGNAFDCCRRDSSADHFGNYQAYAIWGSKTAKDELTVHLDAGVYYPIRLFYNNRGYDGALSFTFKTESNENTVSDFSEYFFSLDDTEEGCPGLISYDSSCASVKTSKIIGIDYHTETPNENLVPITKTIYHLGIPCTGTTTTPLCGSGFYDPLANKCVTINTSSTSSVTKTTSHTTSKEVSFHSSISSQKTLIPKSIPSPYGPIKSQSIPTEMETSSEISSSEYAFSDVISTPSHSPYTKKHSSLNSSSYTSTVIHSLTSYSISQGIFSTSLSEQNITSKSSTDKFSTATSMSNNITQSSIIISQFSTNNENYTTTSMHTSSDKISTETLNNSISTTTSILFSNSSTILKNNTTIISSDKDTHYHPVNPTIVCSTNKTEIICASITQPSISNSNNHWSSSVLKFNSTTVRSTLPSSAGSNETSINVPFSSSTESNTSTSSTSTSNSKMVRSTLPSSAGSNETSISVPFSSSTESNTSTSSTSTSNSKMVRSTLPSSAGSNETSINVPFSSSTESNTSTSSTSTSNSKTVRSTPFSSAGIIMTSLSQRNNKSASSYASSNSKCYNTADSCRKVHSTPSYLLTSSYTSEGVDYDCSLVSTKLKINDTNCVNNKHTTKSCLKTSVTTTIPTLEIKTARKSSSNTIGLHSYPTSSPNKSISSAPIIGYISSFKTIKTASPSYQTSDLTTITTITSLNNPGSTAVENTHESNDKSRKTSSNDISSKHSVIKETKDAVESSNKSHQTNTLKCSSIIIASSSHNSYESLGGTTLTLTLSKVYSPQNNDTLPFLEISEVNPSRTVLPESSKMMQYLTSTEERNKTARNTIATNIVSISTFHFEGEGNAIRMGYTQLLLMLIGIIVMNIGT",glycan array binding signal (z-score),[1],-0.128
same,glycan array binding signal (z-score),[2],-0.166
same,glycan array binding signal (z-score),[3],-0.081
same,glycan array binding signal (z-score),[4],-0.152
same,glycan array binding signal (z-score),[5],-0.088
same,glycan array binding signal (z-score),[6],-0.135
same,glycan array binding signal (z-score),[7],-0.173
same,glycan array binding signal (z-score),[8],0
same,glycan array binding signal (z-score),[9],-0.127
same,glycan array binding signal (z-score),Neu5Ac(a2-3)Gal(b1-4)Glc,-0.12
same,glycan array binding signal (z-score),[10],-0.195
same,glycan array binding signal (z-score),[11],-0.135
same,glycan array binding signal (z-score),[12],-0.025
same,glycan array binding signal (z-score),[13],-0.236
same,glycan array binding signal (z-score),[14],0.006
same,glycan array binding signal (z-score),[15],-0.195
same,glycan array binding signal (z-score),[16],0.141
same,glycan array binding signal (z-score),[17],-0.201
same,glycan array binding signal (z-score),[18],-0.237
same,glycan array binding signal (z-score),[19],-0.186
same,glycan array binding signal (z-score),[20],-0.035
same,glycan array binding signal (z-score),[21],-0.176
same,glycan array binding signal (z-score),[22],-0.191
same,glycan array binding signal (z-score),[23],-0.15
same,glycan array binding signal (z-score),[24],0.001
same,glycan array binding signal (z-score),[25],-0.313
same,glycan array binding signal (z-score),[26],-0.096
same,glycan array binding signal (z-score),[27],-0.148
same,glycan array binding signal (z-score),[28],-0.535
same,glycan array binding signal (z-score),[29],-0.113
